Experimental data: PubChem BioAssay AID485281 (National Center for Advancing Translational Sciences (NCATS), 2010)
The whole screen tested about 350,000 compounds, of which about 260 (0.074%) were called active. The inconclusive results got no clear call from the source; some entries with a clear call stand among them for comparison. Calls follow the shape of the dose curve; as a rule, active = well fitted inhibition curve with a large enough effect; inconclusive = small, poorly fitted or top-dose-only effect; inactive = no such curve, though single readings can be large or run the other way. Where the call is inconclusive, the potency comes from a doubtful curve fit.

biological target: Ferritin light chain (Equus caballus) (UniProt P02791); experiment: qHTS Assay for Identification of Novel General Anesthetics; conditions: apoferritin/1-aminoanthracene competitive binding, fluorescence; series mostly up to 77.5 µM; also: nearly all actives have a fitted effect of over 20% in size
Method in brief: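 In PBS, apoferritin at 10 uM is loaded with 1-AMA from a 50% saturated solution. After 10 min of compound exposure at ambient temperature, reduced 535 nm fluorescence indicates probe displacement.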
Potency is read from the fitted curve at half-maximal effect; tags tell the direction and shape of the fitted curve.

Sequence of UniProt P02791 (P02791 whole entry, looked up): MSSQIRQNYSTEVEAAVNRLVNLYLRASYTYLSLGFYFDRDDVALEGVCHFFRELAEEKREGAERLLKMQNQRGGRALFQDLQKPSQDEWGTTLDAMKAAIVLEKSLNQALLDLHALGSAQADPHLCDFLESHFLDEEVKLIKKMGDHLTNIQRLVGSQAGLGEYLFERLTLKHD

Row | Compound | Potency
1 | O=C(NCc1ccc2c(c1)OCO2)c1ccc(CS(=O)(=O)c2cccc(C(F)(F)F)c2)o1 | inconclusive: 35.5 µM [inhibitor, single point]
2 | CC(=O)c1cc(CC=C(C)C)c(O)cc1O | inconclusive: 25.1 µM [inhibitor, partial curve]
3 | O=C(CSc1nnc(CNC(=O)C23CC4CC(CC(C4)C2)C3)n1-c1ccccc1)Nc1ccccc1 | inconclusive: 25.1 µM [inhibitor, partial curve, poor fit]
4 | CCOC(=O)Nc1ccc(C(=O)Oc2ccccc2)c(O)c1 | inconclusive: 22.4 µM [inhibitor, partial curve]
5 | O=C(O)/C=C/c1cn(-c2ncc(C(F)(F)F)cc2Cl)c2ccccc12 | inconclusive: 50.1 µM [inhibitor, single point]
6 | Cc1ccc(-n2nnc(-c3nccs3)n2)cc1 | inconclusive: 15.8 µM [inhibitor, partial curve]
7 | CC(C)n1c(O)c(N=NC(=O)Cc2csc(N3CCOCC3)n2)c2ccccc21 | inconclusive: 17.8 µM [inhibitor, partial curve]
8 | CCN1CCN(C(=O)c2ccc(Sc3ccccc3Cl)c([N+](=O)[O-])c2)CC1 | inactive
9 | O=C(Cc1ccc(Cl)cc1)N/N=C/c1cccc(O)c1 | inconclusive: 50.1 µM [inhibitor, single point]
10 | CN(CCOc1ccccc1)Cc1nc2cc(Cl)ccc2c(=O)[nH]1 | inconclusive: 44.7 µM [inhibitor, single point]
11 | COc1ccc(OC)c(C2=Nn3c(nnc3-c3ccc(OC)c(OC)c3)SC2)c1 | inactive
12 | COc1ccc(CCNc2oc(Cc3cccc4ccccc34)nc2C#N)cc1OC | inactive
13 | Cc1ccc(S(=O)(=O)N/N=C/c2c(C)nn(-c3ccccc3)c2C)cc1 | inconclusive: 44.7 µM [inhibitor, single point]
14 | Cc1ccc(NC(=O)C2CCCN(S(=O)(=O)c3cccs3)C2)cc1 (configuration not stated) | inconclusive: 28.2 µM [inhibitor, single point]
15 | CCOc1ccc(-n2cc(-c3ccccc3)c3c(NC4CCCC4)ncnc32)cc1 | inactive
16 | Cc1ccc2cc(/C=C(\C#N)C(N)=O)c(N3CCCCC3)nc2c1 | inactive
17 | Cc1ccc(-c2n[nH]c(=S)n2/N=C/C=C\c2ccccc2[N+](=O)[O-])cc1 | inconclusive: 28.2 µM [inhibitor, partial curve]
18 | C=CCSC1=C(C#N)C(c2ccc(C(C)C)cc2)CC(=O)N1 (configuration not stated) | inconclusive: 39.8 µM [inhibitor, partial curve]
19 | COc1ccc(C(C(=O)NC2CCCCC2)N(C(=O)c2sc(C)nc2C)c2ccc(C(C)=O)cc2)cc1 (configuration not stated) | inconclusive: 2 µM [inhibitor, partial curve]
20 | O=C(Oc1c(Cl)cc(Cl)c2cccnc12)c1cccs1 | inconclusive: 35.5 µM [inhibitor, single point]
21 | CS(=O)(=O)c1ccc2nc(NC(=O)c3cccc([N+](=O)[O-])c3)sc2c1 | inactive
22 | CCOc1ccc(C2=CSC3=NCCN23)cc1Cl | inconclusive: 31.6 µM [inhibitor, single point]
23 | CCC(C)c1ccc(OCCN2CCCC2)cc1 (configuration not stated) | inconclusive: 35.5 µM [inhibitor, partial curve]

Row | Compound | Potency
24 | CCn1cc(C(=O)N2CCN(c3cccc(Cl)c3)CC2)c(=O)c2cc(S(=O)(=O)N3CCC(C)CC3)ccc21 | inconclusive: 6.31 µM [inhibitor, full curve, poor fit]
25 | Cc1cccc(C)c1OCC(=O)N(Cc1ccco1)Cc1ccco1 | inconclusive: 25.1 µM [inhibitor, partial curve]
26 | C=Cc1ccc(Cn2c(C)c(CNCCc3ccc(OCC)cc3)c(C(=O)O)c2C)cc1 | inconclusive: 35.5 µM [inhibitor, single point]
27 | Cn1c(=O)c(C#N)c(-c2ccc(F)cc2)c2cc(C(=O)c3cc(Cl)cc(Cl)c3O)cnc21 | inactive
28 | Cc1ccc(C)c(OC(=O)CN2C(=O)c3ccccc3C2=O)c1 | inconclusive: 28.2 µM [inhibitor, partial curve]
29 | O=c1[nH]c2cc3c(cc2cc1CN(CCCO)Cc1nnnn1Cc1ccc(F)cc1)OCO3 | inactive
30 | O=C(O)[C@H]1CCCC[C@H]1C(=O)NCCc1ccccc1 | inactive
31 | O=C(Cn1nc(-c2ccccc2)ccc1=O)N1CCCCC1 | inconclusive: 17.8 µM [inhibitor, partial curve]
32 | O=C(Nc1ccc(Oc2cccnc2)cc1)C1CCN(Cc2ccccc2F)CC1 | inconclusive: 28.2 µM [inhibitor, single point]
33 | CCCc1cc(=O)[nH]c(SCCOc2ccc(Cl)cc2)n1 | inconclusive: 22.4 µM [inhibitor, partial curve]
34 | Cc1cccc(C(=O)Nc2cccc(OC(=O)c3cccc(C)c3)c2)c1 | inconclusive: 3.16 µM [inhibitor, full curve, poor fit]
35 | O=C(Nc1ccc(-c2nc3cccnc3s2)cc1)c1cccnc1Cl | inactive
36 | O=C(NCC1CCCCC1)c1cccnc1 | inconclusive: 44.7 µM [inhibitor, partial curve]
37 | Cc1c(C(C)(C)O)[nH]c2ccc(C(F)(F)F)cc12 | inconclusive: 28.2 µM [inhibitor, partial curve]
38 | CC1CCCCC1NC(=O)NC(=O)CCl (configuration not stated) | inconclusive: 22.4 µM [inhibitor, partial curve]
39 | CCOC(=O)c1c(NC(=O)c2ccc(S(=O)(=O)N(C)CC3CCCO3)cc2)sc2c1CCN(C)C2 (configuration not stated) | inconclusive: 39.8 µM [inhibitor, partial curve]
40 | CCCOc1ccc(C2C(C(=O)OC)=C(C)N=C3SCCC(=O)N32)cc1OCC (configuration not stated) | inconclusive: 31.6 µM [inhibitor, partial curve]
41 | COc1cccc(-n2nc(C(=O)N3CC(C)CC(C)C3)c3ccccc3c2=O)c1 (configuration not stated) | inconclusive: 25.1 µM [inhibitor, partial curve]
42 | COc1ccc(S(=O)(=O)Nc2cc3c4c(oc3c3ccccc23)CCCC4=O)cc1 | inconclusive: 8.91 µM [inhibitor, partial curve]
43 | O=C(COc1ccc2ccc(=O)oc2c1)Nc1c(Cl)cccc1C(F)(F)F | inactive
44 | COc1cc(/C=C2/C(=N)N3C(SC)=NSC3=NC2=O)ccc1OC(=O)c1ccco1 | inactive
45 | CCCCc1ccc(NC(=O)CSc2nc(=O)[nH]c3c2CCCC3)cc1 | inconclusive: 14.1 µM [inhibitor, partial curve]
46 | Cc1ccc(C(=O)Nc2cccc3[nH]c(C(F)(F)F)nc23)cc1 | inactive

Row | Compound | Potency
47 | COC(=O)c1cc(-c2ccc(OC)cc2)n[nH]1 | inactive
48 | O=C(CSc1nc2c([nH]c3ccccc32)c(=O)n1-c1ccccc1F)Nc1cccc(C(F)(F)F)c1 | inactive
49 | O=C(/C=C/c1cccs1)NC(=S)NNC(=O)c1ccccc1O | inconclusive: 50.1 µM [inhibitor, single point]
50 | COc1cccc(Cn2nnc(C(=O)NCCc3ccc(Cl)cc3)c2N)c1 | inconclusive: 8.91 µM [inhibitor, partial curve]
51 | Cc1cc(C)c(C)c(S(=O)(=O)NCC(=O)NCC2CCCCC2)c1C | inconclusive: 14.1 µM [inhibitor, partial curve]
52 | CCOc1ccc(CCNC(=O)Cn2c(-c3cccs3)cc3ccccc32)cc1OCC | inactive
53 | O=C(Nc1cccc(C(=O)OCc2cc(=O)n3nc(C4CC4)sc3n2)c1)c1cccc(Cl)c1 | inactive
54 | C/C(=N\NC(=O)CSCc1cccc(Br)c1)c1ccc([N+](=O)[O-])cc1 | inconclusive: 28.2 µM [inhibitor, partial curve]
55 | CN(C)c1nc(OCCNC(=O)COc2ccc(Cl)cc2Cl)nc(N(C)C)n1 | inconclusive: 14.1 µM [inhibitor, partial curve]
56 | Cc1noc(C)c1Cc1c(Cl)cccc1Cl | inconclusive: 31.6 µM [inhibitor, partial curve]
57 | CCN(CC)S(=O)(=O)c1ccc(C)c(N=C=S)c1 | inconclusive: 25.1 µM [inhibitor, partial curve]
58 | CCOc1ccc(CNC(=O)CCC(=O)N2CCSc3ccccc32)cc1 | inconclusive: 25.1 µM [inhibitor, partial curve]
59 | O=C(Oc1cccc(NC(=O)c2ccccc2Cl)c1)c1ccc([N+](=O)[O-])cc1 | inconclusive: 7.94 µM [inhibitor, full curve]
60 | COc1ccc(NC(=O)c2ccccc2NS(=O)(=O)c2ccc(C)cc2)c([N+](=O)[O-])c1 | inconclusive: 20 µM [inhibitor, partial curve]
61 | Cc1cc(OC(=O)c2cccs2)ccc1C(C)C | inconclusive: 35.5 µM [inhibitor, partial curve]
62 | Cc1ccccc1NC(=O)c1sc2nc(N3CCOCC3)c3c(c2c1N)CCCC3 | inactive
63 | O=C(NN1C(=O)/C(=C/C=C/c2ccccc2)SC1=S)c1ccncc1 | inconclusive: 35.5 µM [inhibitor, single point]
64 | Cc1ccc(C2CC(=O)C(C=NCCN3CCN(C(=S)Nc4ccccc4)CC3)=C(O)C2)cc1 (configuration not stated) | inconclusive: 22.4 µM [inhibitor, partial curve]
65 | CC(C)CCC[C@@H](C)[C@@H]1CC[C@H]2C3=CC=C4CC(O)CC[C@]4(C)[C@H]3CC[C@@]21C (some centres not stated) | inconclusive: 31.6 µM [inhibitor, single point]
66 | Cc1ccc(NC(=O)COC(=O)c2nn(C)cc2Cl)cc1 | inconclusive: 22.4 µM [inhibitor, partial curve]
67 | Cc1cccc(CN2CCSCC2)c1 | inconclusive: 39.8 µM [inhibitor, single point]
